Reference: PubChem BioAssay AID485294 (National Center for Advancing Translational Sciences (NCATS), 2010)
Hit rate of the full screen: of about 370,000 compounds, about 150 (0.041%) were called active. The shares of active, inactive and inconclusive entries below differ from those in the screen. The call rests on the fitted dose curve; in most records, active means well fitted inhibition curve with a large enough effect; inconclusive means small, poorly fitted or top-dose-only effect; inactive means flat fitted curve, though single readings scatter. Potencies of inconclusive entries are left out as doubtful fits.

Each compound was assayed against Beta-lactamase (Escherichia coli (strain K12)) (UniProt P00811) (assay: qHTS Inhibitors of AmpC Beta-Lactamase (assay with detergent)). Settings: AmpC hydrolysis of nitrocefin, absorbance 480 nm, 0.01% Triton; activity change, negative = inhibition: at 114 µM (top of the series).
In short: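 AmpC (5.3 nM in the dispensed reagent) in 20 mM phosphate pH 7.0 with 0.01% (detergent screen) or 0.0001% Triton X-100 was preincubated with compounds for 15 min at room temperature. Nitrocefin was then added from an 800 uM solution, and hydrolysis was followed at 480 nm.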
Further: nearly all actives have a fitted effect of over 25% in size.
Potency means the concentration at half of the fitted maximal effect; tags describe the fitted curve by direction and shape.
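Wherever activity change, negative = inhibition is given: 0% = no-compound wells and -100% = no-enzyme wells.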

UniProt P00811, sequence (P00811 whole entry, looked up): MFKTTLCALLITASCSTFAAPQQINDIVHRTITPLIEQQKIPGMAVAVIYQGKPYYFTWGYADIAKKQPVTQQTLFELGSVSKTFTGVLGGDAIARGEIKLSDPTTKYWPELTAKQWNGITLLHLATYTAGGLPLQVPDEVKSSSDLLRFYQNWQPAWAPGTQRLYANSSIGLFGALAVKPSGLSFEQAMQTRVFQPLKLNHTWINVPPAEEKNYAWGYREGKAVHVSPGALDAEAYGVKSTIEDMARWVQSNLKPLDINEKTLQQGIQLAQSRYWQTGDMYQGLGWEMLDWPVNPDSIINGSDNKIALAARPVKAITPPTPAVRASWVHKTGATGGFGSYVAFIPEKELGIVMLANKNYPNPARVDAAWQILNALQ

Compound	activity change, negative = inhibition	Potency
COc1ccc(CNC(=O)C2CCCN(c3nnc(C)c4c(C)n(-c5ccc(C)cc5)nc34)C2)cc1 (stereo not drawn)	inactive: -1.69%	
CCN(CC)S(=O)(=O)c1cccc(NC(=O)CN2C(=O)NC3(CCC(C)CC3)C2=O)c1 (stereo not drawn)		inconclusive [inhibitor, full curve, poor fit]
CCN(C(=O)c1nn(-c2ccc(OC)cc2)c(=O)c2c1c1ccccc1n2C)c1ccc(OC)cc1		inconclusive [inhibitor, full curve, poor fit]
C=CCn1c(SCC(=O)Nc2ccc(C(=O)O)cc2)nc2sc(C)c(C)c2c1=O	inactive: -16%	
O=C(COc1cc(F)ccc1[N+](=O)[O-])Nc1ccc(N2CCCCC2)cc1		inconclusive [inhibitor, full curve]
OC(CNC1CCCC1)COc1ccc(F)cc1 (stereo not drawn)		inconclusive [inhibitor, full curve, poor fit]
Oc1ccc(Cl)cc1CNc1cnc2ccccc2c1		inconclusive [inhibitor, full curve, poor fit]
Fc1ccccc1Nc1nc(N2CCOCC2)nc(N2CCOCC2)n1	inactive: -10.9%	
COc1ccc(C(=O)Nc2ccc(S(=O)(=O)Nc3nccnc3OC)cc2)cc1		inconclusive [inhibitor, single point]
CCOC(=O)c1c(N/N=C/c2cccnc2)n[nH]c1C	inactive: 5.17%	
Cc1c(C)n(CCc2ccccc2)c2ncnc(NCCCO)c12	inactive: -12%	
COCCCn1c(=S)[nH]c2ccc(N3CCOCC3)cc2c1=O		inconclusive [inhibitor, single point]
O=C(Nc1ccccc1)c1cccnc1N1CCOCC1		inconclusive [inhibitor, partial curve]
Cc1csc(NC(=S)NC(=O)c2ccccc2)n1		inconclusive [inhibitor, full curve, poor fit]
O=C(c1cccc(N2CCCC2=O)c1)N1CCC2(CC1)OCCO2		inconclusive [inhibitor, single point]
O=C(Cn1c(=O)nc(-c2ccccc2F)c2cc(Cl)ccc21)NCCCc1ccccc1	inactive: 16.1%	
Cc1cccc(NC(=O)c2sc3nc(-c4cc5ccc(O)cc5oc4=O)[nH]c(=O)c3c2C)c1	inactive: 13.2%	
O=C(Nc1ccccc1Cl)OC1CN2CCC1CC2 (stereo not drawn)		inconclusive [inhibitor, full curve, poor fit]
O=C1CCN(CCc2ccccc2)CCN1CCOc1ccccc1		inconclusive [inhibitor, full curve, poor fit]
Cc1ccc(Nc2ccc(C(=O)O)cc2N)cc1		inconclusive [inhibitor, partial curve, poor fit]
Cc1cnc(NC(=O)Cc2c[nH]c3ccccc23)s1	inactive: 1.78%	
Cc1nnc(N/N=C/c2cc(C)n(-c3ccc(F)cc3)c2C)n1N		inconclusive [inhibitor, full curve]
COc1cc(/C=N/NC(=O)c2ccc(-c3ccccc3)cc2)cc(OC)c1OC		inconclusive [inhibitor, full curve, poor fit]

Compound	activity change, negative = inhibition	Potency
O=C(Nc1ccccn1)c1ccc(Cl)c(S(=O)(=O)N2CCCCCC2)c1		inconclusive [inhibitor, full curve, poor fit]
CCOC(=O)c1cc(C(=O)NNC(=O)c2cccc([N+](=O)[O-])c2)c(C)nc1C		inconclusive [inhibitor, full curve]
CC(=O)N1CCN(C(=O)c2ccc(-n3c(C)ccc3C)cc2)CC1	inactive: 3.33%	
CC(C(=O)N(C)C)N(C#N)c1nc(N(C)C)nc(N(C)C)n1 (stereo not drawn)		inconclusive [inhibitor, partial curve, poor fit]
Cc1cccc(CC(=O)N2CCN=C2SCc2ccc([N+](=O)[O-])cc2)c1		inconclusive [inhibitor, full curve, poor fit]
CC(C)c1cc(=O)n2[nH]c(N)nc2n1		inconclusive [inhibitor, single point]
Cn1c(SCc2nc3ccccc3[nH]2)nnc1-c1cnccn1	inactive: -9.61%	
COc1ccc(/C=N/n2c(C)nc3ccccc3c2=O)cc1		inconclusive [inhibitor, partial curve, poor fit]
CCN(CC(=O)NC1CCS(=O)(=O)C1)S(=O)(=O)c1ccc(C)c(C)c1 (stereo not drawn)		inconclusive [inhibitor, full curve, poor fit]
Cc1nn(-c2cccc(C(F)(F)F)c2)c(=O)c2ccccc12		inconclusive [inhibitor, full curve, poor fit]
COC(=O)C1C(=O)c2c(n[nH]c2C)CC1(C)C (stereo not drawn)		inconclusive [inhibitor, full curve]
CC1=NN(c2ccccc2)C(=O)C1(C)[N+](=O)[O-] (stereo not drawn)	inactive: -4.41%	
COc1ccccc1C(=O)Nc1nnn(C)n1		inconclusive [inhibitor, full curve, poor fit]
CN1CCN(S(=O)(=O)c2cccc(C(=O)Nc3ccccc3N3CCCCC3)c2)CC1		inconclusive [inhibitor, full curve, poor fit]
Cc1ccc(NC2CC(=O)N(c3ccc(C)cc3)C2=O)cc1 (stereo not drawn)	inactive: -0.684%	
COc1nn(-c2ccccc2)c(=O)c(Cl)c1Cl		inconclusive [inhibitor, full curve, poor fit]
CC(C)(C)c1n[nH]c2c1CCCC2		inconclusive [inhibitor, full curve, poor fit]
C=CCc1ccc(OCC(O)CN2CCN(Cc3ccc(Cl)cc3)CC2)c(OC)c1 (stereo not drawn)		inconclusive [inhibitor, partial curve, poor fit]
Cc1ccc(C2=NN(C(=O)c3ccco3)C(O)(C(F)(F)F)C2)cc1 (stereo not drawn)	inactive: 4.72%	
Cc1cc(=O)[nH]c(SCC(=O)c2ccc(O)c(O)c2)n1		inconclusive [inhibitor, single point]
CCOCCCNS(=O)(=O)c1ccc(NC(=O)c2ccccc2)cc1		inconclusive [inhibitor, full curve, poor fit]
O=C(CN1C(=O)S/C(=C\c2ccccc2)C1=O)NC1CCS(=O)(=O)C1 (stereo not drawn)		inconclusive [inhibitor, full curve, poor fit]
CCOC(=O)N1CCN(CC(=O)Nc2ccc(Oc3ccccc3)cc2)CC1	inactive: -1.87%	

Compound	activity change, negative = inhibition	Potency
C=CCn1c(SCc2ccc(C#N)cc2)nnc1-c1cccc(Cl)c1		inconclusive [inhibitor, partial curve, poor fit]
O=C1CSC(c2cccc([N+](=O)[O-])c2)N1c1ccccc1 (stereo not drawn)		inconclusive [inhibitor, full curve]
CCCCn1c(N)c(N(CC(C)C)C(=O)c2cc3c(s2)CCCCC3)c(=O)[nH]c1=O		inconclusive [inhibitor, full curve]
Cc1ccc(C(=O)Nc2ccccc2N2CCCC2)s1		inconclusive [inhibitor, full curve, poor fit]
Cc1ccc(-c2ccc(CCC(=O)O)n2CC2CCCO2)cc1 (stereo not drawn)		inconclusive [inhibitor, full curve]
O=C(NCCCn1ccnc1)/C(=C\c1cccnc1)NC(=O)c1ccccc1Br		inconclusive [inhibitor, partial curve]
CC(C)CNC(=O)COC(=O)c1c2c(nc3ccccc13)/C(=C/c1cccs1)CC2	inactive: -9.63%	
COc1cc(C(=O)Nc2cc(C)ccn2)cc(OC)c1OC		inconclusive [inhibitor, single point]
CC(C)C(=O)Nc1cccc(NC(=S)NC(=O)c2cccs2)c1		inconclusive [inhibitor, single point]
O=C(CCc1nnc(CCCCc2ccccc2)o1)NCCN1CCOC1=O	inactive: 0.594%	
COc1cccc(-c2nc(-c3ccccc3)c(-c3ccccc3)[nH]2)c1OCC(=O)O		inconclusive [inhibitor, full curve, poor fit]
COc1ccc(C(CC(=O)O)NC(=O)Cc2ccccc2)cc1OC (stereo not drawn)		inconclusive [inhibitor, full curve, poor fit]
Cc1ccccc1C(=O)N1CCC(C(=O)Nc2ccc(F)cc2F)CC1	inactive: 6.15%	
COC(=O)CCC(=O)Nc1ccc(S(=O)(=O)Nc2nc(C)cc(C)n2)cc1		inconclusive [inhibitor, full curve, poor fit]
CO/N=C/c1ccc(N2CCCC2)c([N+](=O)[O-])c1		inconclusive [inhibitor, full curve, poor fit]
CCc1nn(-c2ccccc2)c(N)c1C#N		inconclusive [inhibitor, partial curve, poor fit]
Cn1c(=O)cc(Nc2ccccc2)c2c(=O)n(-c3ccccc3)c(=O)n(-c3ccccc3)c21	inactive: 5.73%	
O=C(CN1C(=O)C2C3C=CC(C3)C2C1=O)NCc1ccc2c(c1)OCO2 (stereo not drawn)		inconclusive [inhibitor, full curve, poor fit]
O=C1CC(Nc2ccc(N3CCOCC3)cc2)C(=O)N1c1ccccc1F (stereo not drawn)		inconclusive [inhibitor, full curve, poor fit]
CCc1ccc(C(=O)COC(=O)CNC(=O)COc2ccccc2)cc1		inconclusive [inhibitor, full curve, poor fit]
COc1cccc(CCNC(=O)c2cnc3sc(N4CCOCC4)nn3c2=O)c1	inactive: -4.26%	
O=C1c2ccccc2C(=O)N1CNc1ccccc1		inconclusive [inhibitor, full curve, poor fit]
